Publication PMC4336329 (PLoS ONE, 2015)
Out of some 310,000 compounds screened, about 2,200 (0.71%) showed an effect of 50% or more. Effects have a minus sign here. Some of the results follow.

molecular target: human ether-à-go-go-related gene (hERG) potassium channel (human, UniProt Q12809); assay: primary screen, population patch clamp on CHO cells stably expressing hERG
Sequence (Q12809 whole entry, looked up): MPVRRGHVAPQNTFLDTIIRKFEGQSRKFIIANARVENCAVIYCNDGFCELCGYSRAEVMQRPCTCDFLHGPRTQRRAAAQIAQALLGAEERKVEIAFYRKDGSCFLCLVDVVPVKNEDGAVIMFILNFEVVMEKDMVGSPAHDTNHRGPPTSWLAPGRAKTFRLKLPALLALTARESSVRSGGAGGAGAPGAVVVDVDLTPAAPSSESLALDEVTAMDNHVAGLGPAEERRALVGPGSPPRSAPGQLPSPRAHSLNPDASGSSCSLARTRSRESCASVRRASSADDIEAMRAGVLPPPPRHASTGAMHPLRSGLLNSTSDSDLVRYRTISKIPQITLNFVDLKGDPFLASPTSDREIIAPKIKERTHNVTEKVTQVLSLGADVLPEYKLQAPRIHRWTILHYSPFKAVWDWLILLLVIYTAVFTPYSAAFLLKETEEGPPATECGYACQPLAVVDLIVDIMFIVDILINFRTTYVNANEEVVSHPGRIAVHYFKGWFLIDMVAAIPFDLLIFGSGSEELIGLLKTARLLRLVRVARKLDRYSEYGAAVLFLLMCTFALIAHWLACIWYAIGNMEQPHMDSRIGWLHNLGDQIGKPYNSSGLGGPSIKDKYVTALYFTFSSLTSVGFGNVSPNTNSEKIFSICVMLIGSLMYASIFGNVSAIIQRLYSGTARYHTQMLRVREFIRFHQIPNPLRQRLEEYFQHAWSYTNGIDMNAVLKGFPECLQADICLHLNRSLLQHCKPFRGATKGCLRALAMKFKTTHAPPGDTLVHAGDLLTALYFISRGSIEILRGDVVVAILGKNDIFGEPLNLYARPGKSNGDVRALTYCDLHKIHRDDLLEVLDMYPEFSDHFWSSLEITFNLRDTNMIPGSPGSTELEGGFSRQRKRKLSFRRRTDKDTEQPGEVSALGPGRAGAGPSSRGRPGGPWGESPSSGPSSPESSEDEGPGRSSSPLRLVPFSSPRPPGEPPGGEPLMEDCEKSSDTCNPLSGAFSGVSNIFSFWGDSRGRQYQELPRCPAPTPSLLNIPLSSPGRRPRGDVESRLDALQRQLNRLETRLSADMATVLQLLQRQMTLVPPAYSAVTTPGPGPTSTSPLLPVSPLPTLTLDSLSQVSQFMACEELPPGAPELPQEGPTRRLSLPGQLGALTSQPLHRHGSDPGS

| SMILES | hERG current change (%, negative = inhibition) at 1uM [%] |
| --- | --- |
| CCn1c2ccccc2c2cc(NC(=O)CSc3nnc(-c4cccc(Cl)c4)o3)ccc21 | 9.78 |
| CCN(Cc1ccccc1)C(=O)c1nn(-c2ccc(OC)cc2)c(=O)c2c1c1ccccc1n2C | -3 |
| CC(C)(CNc1ccc(S(=O)(=O)C(F)(F)F)cc1[N+](=O)[O-])N1CCOCC1 | 9.84 |
| O=S(=O)(Nc1cccc(Br)c1)c1cccc2nsnc12 | 11.8 |
| COc1ccc(/C(C)=N/NC(=O)Cc2ccc(Cl)cc2)cc1 | 11.9 |
| CC1(C)CC(N2CCOCC2)=CC(=[N+]2CCOCC2)C1.[I-] | 8.12 |
| CC(C)(C)[C@H]1CCC(=O)N([C@H](CC#N)Cc2ccccc2)CC1 | 5.43 |
| N/C(=N\OC(=O)CCCCCN1C(=O)c2ccccc2C1=O)c1ccccn1 | -0.459 |
| CCCCn1c(O)c(/C=C/C=C/C=Nc2ccccc2)sc1=S | 27.7 |
| COC(=O)Cc1nnc(NC(=O)c2ccccc2)s1 | 11.5 |
| CC(C)(CNC(=O)c1sc2cc(F)ccc2c1Cl)N1CCOCC1 | -3.73 |
| Cc1cc(C)c(S(=O)(=O)NCc2cccs2)cc1C | -4.26 |
| O=C(Nc1cccc([N+](=O)[O-])c1)C1C2/C=C\CCCCC21 (centres unmarked) | 13.9 |
| Cc1ccccc1N1C(=O)CC(N(O)c2ccccc2)C1=O (centres unmarked) | 8.96 |
| NS(=O)(=O)c1ccc(NS(=O)(=O)c2ccc(Br)cc2)cc1 | 12.5 |
| Cc1ccc(S(=O)(=O)N2CCN(C(=O)COC(=O)c3oc4ccccc4c3C)CC2)cc1 | 11.1 |
| Cc1ccc(C(=O)NC2CC(C)(C)NC(C)(C)C2)cc1 | 2.45 |
| COc1ccccc1NC(=O)CSc1nnnn1-c1ccc(F)cc1 | 8.93 |
| COC(=O)C(C)Oc1ccc(-c2nccc(-c3cccs3)n2)cc1 (centres unmarked) | 10 |
| CCC(C)[C@H](NC(=O)N1CCN(C)CC1)C(=O)OC (some centres unmarked) | 14.7 |
| OCCC1CN(Cc2cccn2-c2ncccn2)CCN1C1CCCC1 (centres unmarked) | 0.978 |
| Cc1nc2sccn2c(=O)c1S(=O)(=O)N1CCN(c2ccccc2)CC1 | 7.33 |
| O=S1(=O)CCN2C=C(Br)C=C(Br)C2=N1 | -1.67 |

| SMILES | hERG current change (%, negative = inhibition) at 1uM [%] |
| --- | --- |
| CC1CCCCC1NC(=O)CCn1c(=O)oc2ccccc21 (centres unmarked) | -0.537 |
| O=C(CCn1c(=S)[nH]c2ccccc2c1=O)NCC1CCCO1 (centres unmarked) | -1.57 |
| Nc1c(C(=O)c2ccccc2)sc2c1c(=O)[nH]c(=O)n2-c1ccccc1 | -0.482 |
| CC(C)n1c(O)c(N=NC(=O)C2COc3ccccc3O2)c2ccccc21 (centres unmarked) | 8.58 |
| COc1ccc(CCNC(=O)CSc2nc3[nH]ncc3c(=O)n2-c2ccccc2Br)cc1OC | 36.2 |
| Cc1cc(C(=O)Nc2nc3c(C)cccc3s2)c(C)o1 | 5.46 |
| Cc1cc(C)c2c(N)c(C(=O)N/N=C/c3cccnc3)sc2n1 | 13.2 |
| CC(C)CNS(=O)(=O)c1ccc(S(=O)(=O)N2CCCN(Cc3ccccc3)C2)cc1 | 7.2 |
| O=C1Nc2ccccc2C12Nc1ccccc1-c1nc3ccccc3n12 (centres unmarked) | 6.73 |
| Fc1ccc(NC(=S)N2CCCc3ccccc32)cc1 | 4.07 |
| O=C(CSc1nnc(-c2ccncc2)n1Cc1ccccc1)Nc1nccs1 | 6.45 |
| CCOc1ccccc1N(CC(=O)Nc1ccccc1C(=O)N1CCOCC1)S(C)(=O)=O | 14.3 |
| CN(c1ccc(OCC(=O)NCCc2ccccc2)cc1)S(=O)(=O)c1ccc(Cl)cc1 | 10.3 |
| Cc1cc(NC(=O)CN2CCCCC2C)nc2c1c(=O)oc1ccccc12 (centres unmarked) | 12.3 |
| Clc1ccc(N/N=C/c2ccncc2)cc1Cl | 13.8 |
| O=C(NC(=S)NCc1ccccc1)c1ccc2c(c1)OCO2 | 2.26 |
| CCN1CCN(C(=S)c2ccc(OCC(=O)N3CCOCC3)cc2)CC1 | 16.2 |
| Cc1cccc(CC(C)NC(=O)CCc2nnc(CCCCc3ccccc3)o2)n1 (centres unmarked) | 8.38 |
| CC(C)CNC(=O)C1CCN(Cc2ccc(OCc3ccccc3)cc2)CC1.O=C(O)C(=O)O | -26.7 |
| Cc1ccc(C)c(C(=O)O/N=C(\N)c2ccc(Br)cc2)c1 | 5.76 |
| COc1cccc(NC(=O)c2cnc(SC)nc2C)c1 | 13.4 |
| CCOc1cccc(/C=N/NC(=S)Nc2ccccc2[N+](=O)[O-])c1O | 12.4 |
| COc1cccc(OC)c1C(=O)Nc1cccc(-c2nc3ccccc3[nH]2)c1 | -0.724 |

| SMILES | hERG current change (%, negative = inhibition) at 1uM [%] |
| --- | --- |
| CC1CCOC2(O1)C(=O)Nc1ccccc12 (centres unmarked) | 7.37 |
| Cn1c(=O)c(C(=O)CN2CCc3ccccc32)c(N)n(Cc2ccccc2)c1=O | -1.78 |
| Cc1cc([N+](=O)[O-])ccc1-c1ccc(/C=N/NC(=O)c2ccc(Br)o2)o1 | -4.2 |
| Cc1cccc(NC(=O)N2CCCC2C(=O)NCc2cccs2)c1 (centres unmarked) | 1.27 |
| CCOC(=O)N1CCC(NC(=O)CCc2ccccc2)CC1 | 11.6 |
| CCOC(=O)[C@@H]1[C@H]2COc3cc(OC)ccc3[C@@H]2N2C(=O)N(c3ccc(F)cc3)C(=O)[C@]12C | 8.75 |
| Cc1cc(NC(=O)COC(=O)COc2cccc3c2OC(C)(C)C3)no1 | 13.6 |
| CCOc1cccc2cc(C(=O)NCc3ccc(OC)cc3)c(=N)oc12 | 11.5 |
| CCCCOC(=O)C1=C(C)Nc2ncnn2C1c1ccc(OC)c(OC)c1 (centres unmarked) | 2.61 |
| COc1ccc2cc(/C=N/O)c(Cl)nc2c1 | 11.2 |
| CCN1CC(CN(C)Cc2nc(-c3ccc(OC)c4ccccc34)oc2C)CC1=O (centres unmarked) | 1.02 |
| COc1ccc(CC(=O)Nc2nnc(C(C)C)s2)cc1OC | 4.74 |
| O=C1NC(Cc2c[nH]c3ccccc23)C(=O)N1c1ccc(F)cc1 (centres unmarked) | 14.3 |
| COc1cccc(N(C(=O)c2nc3nccc(C)n3n2)c2nc3ccccc3s2)c1 | 3.26 |
| CN1CCN(c2nc3c(c(=O)n(C)c(=O)n3C)n2Cc2cccc3ccccc23)CC1 | 3.53 |
| O=C(CCC(=O)N(CC(=O)NC1CCCCC1)c1ccccc1F)Nc1nccs1 | -2.33 |
| O=C1NC(=O)N(c2ccccc2)C(=O)/C1=C/c1ccoc1 | 15 |
| Cc1nn(-c2ccccc2)c(C)c1C(=O)OCC(=O)N1c2ccccc2NC(=O)C1(C)C | 2.24 |
| Cc1cc(N)n(-c2nc(-c3cccnc3)nc3ccccc23)n1 | -7.06 |
| Cc1ccc(-n2c(-c3cc(-c4ccco4)[nH]n3)n[nH]c2=S)c(Br)c1 | 11.6 |
| COc1cc(C(CCN2CCCC2)c2c(OC)cc(OC)c3ccc(=O)oc23)cc(OC)c1OC (centres unmarked) | -26.2 |
| O=S(=O)(Nn1cnnc1)c1ccccc1Cl | 14.1 |
| O=C(CSc1nc2ccccc2nc1N1CCOCC1)Nc1ccccc1F | 6.29 |

| SMILES | hERG current change (%, negative = inhibition) at 1uM [%] |
| --- | --- |
| COc1cc(Cl)c(C)cc1NC(=O)CSCC#N | 5.82 |
| Cc1ccc(NC(=O)CCn2nc(C)cc2C)c(C)c1 | 8.75 |
| CNC(=S)N/N=C/c1ccc(C(C)C)cc1 | 7.9 |
| CCOc1ccc2nc(Cl)sc2c1 | 12 |
| COc1ccc(NC(=O)c2cc([N+](=O)[O-])ccc2N2CCN(C)CC2)cc1 | -15.5 |
| CC(Oc1ccc(Cl)cc1Cl)C(=O)NNC(=O)[C@@H]1CCCC[C@@H]1C(=O)O (some centres unmarked) | 8.32 |
| CCO[C@H]1OC(C(=O)N2CCCCCCC2)=C[C@@H](c2coc3ccccc3c2=O)[C@@H]1CCCO | 3.19 |
| CCOC(=O)N1CCN(C(=S)Nc2ccccc2C(C)C)CC1 | 4.46 |
| c1ccc(CN2CCN(Cc3cn4cccnc4n3)CC2)cc1 | 13.4 |
| O=S(=O)(c1ccccc1C(F)(F)F)N1CCC(n2cnc3ccccc32)CC1 | -20.7 |
| Fc1ccc(COc2ccccc2CNc2nn[nH]n2)cc1 | 11.5 |
| CCc1ccc(N(CC(=O)NCCc2ccccc2)C(=O)CCC(=O)Nc2ccccn2)cc1 | 5.65 |
| CNc1ccccc1C(=O)OC(C)C(=O)Nc1ccc(Cl)cn1 (centres unmarked) | 7.14 |
| C=CCn1c(NCc2ccc(OC)cc2O)nc2ccccc21 | 8.41 |
| O=C(CSc1nnnn1C1CCCCC1)Nc1ccccc1F | 17.5 |
| NS(=O)(=O)c1ccc(NC(=O)CSc2nc3c(c(=O)[nH]2)CCCC3)cc1 | 9.72 |
| CCOc1cc2nc(-c3ccc(OC)c(OC)c3)nc(N3CCOCC3)c2cc1OC | -12.7 |
| COc1ccc(CNC(=O)CSc2nccn(-c3ccc(F)c(F)c3)c2=O)cc1 | 2.84 |
| CCOC(=O)c1ccc(N2CCN(c3ccccc3F)CC2)c(NC(=O)Nc2ccccc2)c1 | 9.63 |
| CCOc1ccccc1NC(=O)C1CCN(C(=O)Cc2ccccc2)CC1 | -2.58 |
